Values joined by “and” are separate entries in the source; they are usually repeats but may differ in a detail not shown here. Equal values may be shown once. In all, about 5,300 compounds were measured (“PER2::LUC luminescence relative to vehicle control”: median about 0.96, highest 2% from about 1.3 on). The list shows a part of the results.
Tested on: mPer2Luc MEF
Test: PER2::LUC luminescence relative to vehicle control (fold of vehicle); higher = higher PER2::LUC reporter signal
Conditions: 10 µM
Summary of the method: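 The value is PER2::LUC luminescence expressed as fold of vehicle control. Mouse embryonic fibroblasts carrying the mPer2Luc reporter were seeded at ~3000 cells per well in 384-well plates and grown in DMEM with 10% FBS at 37 °C and 5% CO2. Compounds from commercial libraries were added at 10 μM 48 h after seeding, and luminescence was read with the ONE-Glo luciferase assay system 24 h and 30 h after treatment, followed by an alamarBlue viability assay.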

| Compound | PER2::LUC luminescence (time after treatment 24 h) | PER2::LUC luminescence (time after treatment 30 h) |
| --- | --- | --- |
| Nc1ncnc2c1ncn2[C@@H]1O[C@H](COP(=O)(O)OP(=O)(O)OP(=O)(O)O)[C@@H](O)[C@H]1O | 1.04 and 1.09 | 0.954 and 1.11 |
| N#Cc1c(-c2ccccc2)cc(-c2cc(Br)ccc2O)[nH]c1=O | 0.951 | 0.967 |
| CC(=O)N[C@H]1[C@H]([C@H](O)[C@H](O)CO)OC(C(=O)O)=C[C@@H]1NC(=N)N | 0.973 | 0.945 |
| Cc1cnc(CNC(=O)c2c(=O)c3ccc(N4CCCN(C)CC4)nc3n3c2sc2ccccc23)cn1 | 0.864 | 0.599 |
| COc1ccc(-c2cc(=O)c3ccc(O)cc3o2)cc1 | 1.19 | 1.23 |
| N[C@@H](C(=O)N[C@@H]1C(=O)N2C(C(=O)O)=C(CSc3cn[nH]n3)CS[C@H]12)c1ccc(O)cc1 | 1 | 0.912 |
| CN(C)Cc1cccc(N/C(=C2\C(=O)Nc3cc(C(N)=O)ccc32)c2ccccc2)c1 | 0.8 and 0.668 | 0.995 and 0.615 |
| CCN1CC(CCN2CCOCC2)C(c2ccccc2)(c2ccccc2)C1=O (stereo not drawn) | 1.19 and 1.17 | 1.11 and 1.06 |
| Cc1c(C(=O)NN2CCOCC2)nn(-c2ccc(Cl)cc2Cl)c1-c1ccc(I)cc1 | 1.07 | 1.09 |
| C=C1C(=O)O[C@@H]2C[C@@]3(C)CCC[C@H](C)C3=C[C@H]12 | 0.959 | 0.945 |
| C#CCN1C(C)=C(C(=O)OC)C(c2cccc([N+](=O)[O-])c2)C(C(=O)OCC)=C1C (stereo not drawn) | 0.918 | 0.966 |
| COc1ccc(C(=O)/C=C/c2ccccc2)cc1 | 1.25 | 1.28 |
| OCc1cc(C(O)CNCCCCCCOCCCCc2ccccc2)ccc1O (stereo not drawn) | 0.732 and 1.11 | 0.766 and 1.06 |
| OCC12COC(c3ccc(F)cc3)N1C(c1ccc(F)cc1)OC2 (stereo not drawn) | 1.07 | 1.03 |
| CC(=O)OCC(=O)[C@@]12N=C(C)O[C@@H]1C[C@H]1[C@@H]3CCC4=CC(=O)C=C[C@]4(C)[C@H]3[C@@H](O)C[C@@]12C | 0.575 | 1.16 |
| CC(=O)Nc1ccc(CC(=O)O)cc1 | 0.818 | 0.808 |
| C[C@@H](CN1CC(=O)NC(=O)C1)N1CC(=O)NC(=O)C1 | 1.1 | 0.925 |
| CC(C)CCC[C@@H](C)[C@H]1CC[C@H]2[C@@H]3C=CC4=CC(=O)CC[C@]4(C)[C@H]3CC[C@]12C | 0.981 | 0.927 |
| N=C(N)NCCC[C@H](N)C(=O)O | 1.08 and 1.11 | 0.918 and 1.1 |
| O=c1oc2cc(O)ccc2c2oc3cc(O)ccc3c12 | 1.06 | 1.13 |
| CNCCC(Oc1ccc(C(F)(F)F)cc1)c1ccccc1 (stereo not drawn) | 0.743 and 0.643 | 0.681 and 0.579 |

| Compound | PER2::LUC luminescence (time after treatment 24 h) | PER2::LUC luminescence (time after treatment 30 h) |
| --- | --- | --- |
| Cc1nc2n(c(=O)c1CCN1CCC(c3noc4cc(F)ccc34)CC1)CCCC2 | 1.04 | 0.953 |
| Cc1cc2c(cc1Cl)N(C(=O)Nc1cccc3ncccc13)CC2 | 1.21 | 1.06 |
| CCn1cc(C(=O)O)c(=O)c2cnc(N3CCCC3)nc21 | 0.937 | 0.965 |
| O=S(=O)(O)CCS | 1.06 | 1.06 |
| CCCCCCCCCCCCC[N+](C)(C)Cc1ccccc1 | 0.132 | 0.207 |
| CCCCCCCCCCC/C=C\C(C)(C)/C=C\CCCC(=O)O | 0.905 | 0.804 |
| Cn1c(-c2ccc3c(c2)OCO3)cc(=O)c2ccccc21 | 1.07 | 1.11 |
| CCOc1ccccc1OCCN[C@H](C)Cc1ccc(OC)c(S(N)(=O)=O)c1 | 1.09 and 1.03 | 1.05 and 0.993 |
| CC(C)(C)NC[C@H](O)c1ccc(O)c(CO)c1 | 0.599 | 0.909 |
| CC(C)Nc1ncccn1 | 0.974 | 0.864 |
| O=C(O)c1cc(-c2ccc(F)cc2F)ccc1O | 0.866 | 1.07 |
| O[C@H]1[C@H]2c3cc4c(cc3CN3CCC(=C[C@@H]1O)[C@H]23)OCO4 | 1.03 | 0.952 |
| CCCCNC(=O)NS(=O)(=O)c1ccc(C)cc1 | 0.913 | 0.908 |
| COC(=O)c1c(C)cc(O)cc1O | 1.01 | 0.946 |
| CCCS(=O)(=O)Nc1ccc(F)c(C(=O)c2c[nH]c3ncc(-c4ccc(Cl)cc4)cc23)c1F | 0.839 and 1.12 | 0.889 and 1.04 |
| CCOC(=O)OC(C)OC1=C(C(=O)Nc2ccccn2)N(C)S(=O)(=O)c2ccccc21 (stereo not drawn) | 1.1 | 0.871 |
| O=C(Nc1c(Cl)cncc1Cl)c1ccc(OC(F)F)c(OCC2CC2)c1 | 0.843 | 0.859 |
| CC(=O)[C@H]1CC[C@H]2[C@@H]3C[C@H](C)C4=CC(=O)CC[C@]4(C)[C@H]3[C@@H](O)C[C@]12C | 0.583 | 1.12 |
| CN(C)Cc1ccc(-c2nc3cccc4c3n2CCNC4=O)cc1 | 1.09 | 1.05 |
| CCCCCCc1ccc(O)cc1O | 0.949 and 0.856 | 0.695 and 0.726 |
| CC1(C)NC(=O)N(c2ccc([N+](=O)[O-])c(C(F)(F)F)c2)C1=O | 0.945 | 1.04 |

| Compound | PER2::LUC luminescence (time after treatment 24 h) | PER2::LUC luminescence (time after treatment 30 h) |
| --- | --- | --- |
| CC(C)(c1ccc(O)cc1)c1ccc(O)cc1 | 1.22 | 1.26 |
| CC(C)C[C@H](NC(=O)[C@H]1O[C@@H]1C(=O)O)C(=O)NCCCCN=C(N)N | 0.953 | 0.977 |
| Cc1nnc(-c2sc(NC(=O)[C@H](C(C)C)n3c(=O)[nH]c4ccccc4c3=O)nc2C)o1 | 1.04 | 0.956 |
| Oc1c2ccccc2c2c3c(cccc13)N=N2 | 0.849 | 1.03 |
| C=C(C)[C@@H]1CC=C(C(=O)O)CC1 | 0.906 and 1.06 | 0.925 and 1.16 |
| COC(=O)[C@@H]1[C@H]2C[C@H]3c4[nH]c5ccccc5c4CCN3C[C@@H]2CC[C@@H]1O | 0.959 | 0.869 |
| C[C@]12C=CC(=O)C=C1CC[C@@H]1[C@@H]2[C@@H](O)C[C@@]2(C)[C@H]1CC[C@]2(O)C(=O)COC(=O)CCC(=O)O | 0.653 and 0.556 | 0.852 and 0.926 |
| COC(=O)C[C@H]1C(C)(C)C(=O)[C@@H]2CC3=C4CC(=O)O[C@@H](c5ccoc5)[C@]4(C)CC[C@@H]3[C@@]1(C)C2=O | 0.9 | 0.918 |
| CC(C)NCC(O)COc1cccc2ccccc12 (stereo not drawn) | 0.712 | 0.907 |
| COc1ccc2cc([C@@H](C)C(=O)O)ccc2c1 | 1 | 1.05 |
| COc1cccc(CNc2ccc3nc(-c4ccc(N)cc4)c(OC)n3n2)c1 | 0.931 | 0.985 |
| Nc1nc(=O)c2c([nH]1)NC[C@@H](CNc1ccc(C(=O)N[C@@H](CCC(=O)O)C(=O)O)cc1)N2C=O | 1.09 | 1.05 |
| CC(=O)N[C@@H]([C@@H](O)[C@H](O)[C@H](O)CO)[C@@H](O)CC(=O)C(=O)O | 0.972 | 1.01 |
| COC(=O)[C@H](Cc1cccc(C(=N)N)c1)[C@@H](C)NC(=O)c1ccc(-c2cc[n+]([O-])cc2)cc1 | 1.02 | 1.04 |
| Cc1nc(NC(=O)N2CCC[C@H]2C(N)=O)sc1-c1ccnc(C(C)(C)C(F)(F)F)c1 | 0.553 | 0.49 |
| COc1ccc(C(=O)C2CCN(CC(=O)N(Cc3nc4c(c(=O)[nH]3)COCC4)CC3CC3)CC2)cc1 | 1.04 | 0.931 |
| S=C(S)O[C@H]1C[C@H]2C[C@@H]1[C@@H]1CCC[C@H]21 | 1.04 | 1.01 |
| CN1C(=O)C(F)=C[C@]2(C)[C@H]3CC[C@]4(C)[C@@H](C(=O)NCc5nc6cccnc6[nH]5)CC[C@H]4[C@@H]3CC[C@@H]12 | 0.934 | 0.988 |
| C[C@@H](NC(=O)/C(C#N)=C/c1ccc(O)c(O)c1)c1ccccc1 | 1.08 | 1.1 |
| Sc1nc2ccccc2s1 | 0.972 | 0.928 |
| CCOCCOc1ccccc1C(N)=O | 0.861 | 1.09 |

| Compound | PER2::LUC luminescence (time after treatment 24 h) | PER2::LUC luminescence (time after treatment 30 h) |
| --- | --- | --- |
| COc1ccc2cc1Oc1ccc(cc1)C[C@H]1c3cc(c(OC)cc3CCN1C)Oc1c(OC)c(OC)cc3c1[C@H](C2)N(C)CC3 | 0.354 | 0.398 |
| CC[C@H]1OC(=O)[C@H](C)C(=O)[C@H](C)[C@@H](O[C@@H]2O[C@H](C)C[C@H](N(C)C)[C@H]2O)[C@](C)(OC)C[C@@H](C)C(=O)[C@H](C)[C@H]2N(CCCCn3cnc(-c4cccnc4)c3)C(=O)O[C@]12C | 1.06 | 0.887 |
| CCCCOc1cc(C(=O)NCCN(CC)CC)c2ccccc2n1 | 0.922 and 0.647 | 0.751 and 0.73 |
| O=C(O)[C@H]1C[C@H](C(=O)O)N1 (relative stereo) | 1.04 | 0.998 |
| O=P(O)(O)C(Cl)(Cl)P(=O)(O)O | 1.12 | 0.974 |
| Cc1ccc(O)cc1Nc1ccnc(Nc2cccc(C(N)=O)c2)n1 | 1.05 | 1.02 |
| C[C@H](CC[C@@H]1OC1(C)C)[C@H]1CC[C@H]2[C@@H]3CC=C4C[C@@H](O)CC[C@]4(C)[C@H]3CC[C@]12C | 1.03 | 0.937 |
| O=C1CCc2cc(OCCCCc3nnnn3C3CCCCC3)ccc2N1 | 0.737 | 0.864 |
| CCS(=O)(=O)CCn1c([N+](=O)[O-])cnc1C | 1.08 | 0.966 |
| N#C[C@@H]1C[C@@H]2C[C@@H]2N1C(=O)[C@@H](N)C12CC3CC(CC(O)(C3)C1)C2 | 1.25 and 0.721 | 1.11 and 1.01 |
| CCC1=C(C)CN(C(=O)NCCc2ccc(S(=O)(=O)NC(=O)N[C@H]3CC[C@H](C)CC3)cc2)C1=O | 0.958 | 1.22 |
| Cc1ccccc1-n1c(Cn2nc(-c3cccc(O)c3)c3c(N)ncnc32)nc2cccc(C)c2c1=O | 1.07 | 1.13 |
| C[C@@]12C[C@@]3(O)O[C@@H](O1)[C@]1(COC(=O)c4ccccc4)[C@H]3C[C@@]12O[C@@H]1O[C@H](CO)[C@@H](O)[C@H](O)[C@H]1O | 0.885 and 0.959 | 1.05 and 0.911 |
| COc1cc(/C=C/c2ccccc2)oc(=O)c1 | 1.22 | 1.31 |
| CCC(C)SSc1ncc[nH]1 (stereo not drawn) | 0.715 | 0.789 |
| CCCCCCCC/C=C\CCCCCCCC(=O)NCCc1ccc(O)c(O)c1 | 1.06 | 1.12 |
| CC(=O)OCC1=C(C(=O)O)N2C(=O)[C@@H](NC(=O)CSc3ccncc3)[C@H]2SC1 | 0.929 | 0.956 |
| CN(C)[C@@H]1C(O)=C(C(N)=O)C(=O)[C@@]2(O)C(O)=C3C(=O)c4c(O)ccc(Cl)c4[C@@](C)(O)[C@H]3C[C@@H]12 | 0.816 | 1.05 |
| O=C1OC2(c3ccc(O)cc3Oc3cc(O)ccc32)c2ccccc21 | 1.03 | 0.742 |
| CC(CC(=O)O)C(N)C(=O)O (racemic) | 0.979 | 0.922 |
| COc1cc(C(=O)NC2CCCNC2)cc(OC)c1OC (stereo not drawn) | 1.01 | 1.25 |

From the supplement of paper PMC9334596
